Measured values from PubChem BioAssay AID1814 (Broad Institute, 2009).
The campaign covered roughly 300,000 compounds. About 22,000 (7.3%) were called active. Inconclusive means that the source gave no clear call. Such entries were picked first, then a sample of the others. No stated cut-off is given here; in the data, active means activity score below about -60%; inconclusive means mostly about -28% to -61%; inactive means positive scores.

Assay: Activators via SNCA 5'UTR binding, MLPCN (AID 1814)
Settings: alpha-synuclein 5'UTR reporter, activators screen; hits give low values; tested at 7.5 µM
For `COc1ccc(-n2cnc3ccccc32)cc1`, the activity score was inconclusive: -41.5%. For `COCCn1c(C)cc(C(=O)COC(=O)c2n[nH]c3ccccc23)c1C`, the activity score was inactive: 80.8%. For `c1ccc2c(c1)oc1c(N3CCN(Cc4ccc5c(c4)OCO5)CC3)ncnc12`, the activity score was inconclusive: -39.5%. In the case of `CCOc1cc(C=C2C(=O)c3ccccc3C2=O)ccc1OCC(=O)Nc1ccc(C)cc1`, the activity score was inconclusive: -61.2%. With `Cc1ccc(Nc2nc(CSc3nnc(-c4ccccc4C)n3C)cs2)cc1` the activity score was active: -93.3%. In the case of `COC(=O)c1ccccc1N/C=C/C(=O)c1ccc(Br)cc1`, the activity score was active: -132%. With `CC(C)CC(=O)Nc1ccc2c(c1)OCO2` the activity score was inconclusive: -54.3%. With `CCCNC(=O)c1ccc(Cn2cc(-c3ccc(OC)cc3)nc2C(C)N)cc1` (stereo unspecified) the activity score was inconclusive: -55.7%. With `COc1ccccc1NC(=O)CCC(=O)c1ccc(-c2ccccc2)cc1` the activity score was inconclusive: -58.4%. With `CC(C)(C)NC(=O)C(=O)NCCC1=CCCCC1` the activity score was inconclusive: -44%. With `COc1nc(NC(C)=O)nc(C)c1Br` the activity score was inconclusive: -34.3%. In the case of `COCCNC(=O)NC(=O)CN1CCCc2ccccc21`, the activity score was inconclusive: -56.5%. With `O=C(Nc1ccccc1)N(CCN1CCOCC1)Cc1ccccc1F` the activity score was inconclusive: -35.9%. For `COc1ccc(-c2oc3ccccc3c(=O)c2OC(=O)c2ccc(C)cc2)cc1`, the activity score was inconclusive: -59.6%. For `O=C(NC(=S)NCC1CCCO1)c1cccs1` (stereo unspecified), the activity score was inconclusive: -44%. For `C=CC[n+]1c(-c2ccc(Cl)cc2Cl)csc1Nc1ccc(NC(C)=O)cc1`, the activity score was inactive: 94.4%. In the case of `FC(F)(F)c1nc2cc3nc4ccccc4[nH]c3cc2n1`, the activity score was inconclusive: -57.4%. In the case of `N/C(=N\OC(=O)Cc1cccs1)c1ccc([N+](=O)[O-])cc1`, the activity score was inconclusive: -48.8%. With `CCc1ccc(C(=O)COC(=O)[C@@H](NC(N)=O)[C@@H](C)CC)cc1` the activity score was inconclusive: -57.7%. For `COc1ccccc1C(=O)NNC(=O)c1ccccc1`, the activity score was active: -74%. With `Clc1ccc2[nH]c3c(NCC4CCCO4)ncnc3c2c1` (stereo unspecified) the activity score was inconclusive: -50.8%. With `CCN(CC)CCCNC(=O)c1cc(-c2ccc(Cl)c(Cl)c2)on1` the activity score was inconclusive: -44.4%. In the case of `CN(C(=O)c1cc2c(=O)n3ccccc3nc2s1)C1CCCCC1`, the activity score was inconclusive: -42.4%. With `Cc1ccc(-n2c(N)c(C(=O)Nc3c(C)n(C)n(-c4ccccc4)c3=O)c3nc4ccccc4nc32)cc1C` the activity score was inactive: 74%. With `O=C(Nc1ccc(-c2cnco2)cc1)c1ccc(F)cc1F` the activity score was active: -146%. With `O=C(Nc1ccccn1)c1ccc(Cl)s1` the activity score was active: -129%. With `OCCN1CCN(CC/C=C2/c3ccccc3CSc3ccccc32)CC1` the activity score was inactive: 103%. For `CCCC(=O)Nc1nnc(SCC)s1`, the activity score was inconclusive: -55.1%. With `O=C(O)c1ccccc1N/N=C\c1ccnc2ccccc12` the activity score was inactive: 76.2%. With `COC(=O)C1=C(C(=O)OC)[C@@H]2N(C)c3ccccc3[C@@]23C[C@@H](C(=O)OC)N(C(=O)c2ccc(Br)cc2)C3=N1` the activity score was inconclusive: -25.8%. With `C/C(=N\N=C(/N)c1nonc1N)c1ccc2c(c1)OCO2` the activity score was active: -110%. In the case of `CC(=O)NCC(=O)OCC(=O)Nc1nc(-c2ccccc2)cs1`, the activity score was inconclusive: -54.3%. In the case of `C/C(=N\NC(=S)NCc1ccccc1)c1cccs1`, the activity score was inconclusive: -55.4%. In the case of `Cn1c(N)c(C(=O)COC(=O)COc2ccccc2C#N)c(=O)n(C)c1=O`, the activity score was inconclusive: -60.6%. In the case of `Cc1cccc(C)c1NC(=O)c1ccc([N+](=O)[O-])s1`, the activity score was inconclusive: -36.8%. In the case of `COCCn1c(C)cc(C(=O)CN2C(=O)NC3(CCCCCCC3)C2=O)c1C`, the activity score was active: -99.2%. In the case of `c1ccc(-n2nnc3c(N4CCOCC4)ncnc32)cc1`, the activity score was inactive: 75%. With `COC(=O)c1ccc(NC(=O)c2ccccc2)o1` the activity score was inconclusive: -52.2%. With `Cc1c(NC(=O)c2ncn[nH]2)cccc1-c1nc2ccccc2s1` the activity score was inconclusive: -49.1%. With `CCOc1cc(CNCCCN2CCOCC2)cc(Br)c1OCc1ccccc1Cl` the activity score was inactive: 96.4%. For `Cc1ccc(-n2ncc3c(N4CCCC4)ncnc32)c(C)c1`, the activity score was active: -114%. In the case of `Cc1ccc2[nH]cc(/C=C/c3cc[n+](C)cc3)c2c1`, the activity score was inactive: 64.5%. For `CN(C)CCCCCN(C)Cc1cc2ccccc2o1`, the activity score was inconclusive: -50.2%. For `O=C(CCc1nnc(-c2ccc(-c3ccccc3)cc2)o1)NCCc1ccccn1`, the activity score was inactive: 90.3%. In the case of `S=C(c1ccc(-c2ccccc2)cc1)N1CCOCC1`, the activity score was inactive: 64.5%. For `O=C(N/N=C/c1c(Cl)cccc1Cl)c1cccc(F)c1`, the activity score was inconclusive: -57.8%. In the case of `CCOc1ccc(-c2ccc(SC)nn2)cc1`, the activity score was inactive: 75.6%. In the case of `CC(=O)Nc1cccc(OCc2ccc(S(=O)(=O)Cc3ccccc3)cc2)c1`, the activity score was inconclusive: -61.1%. For `O=C(c1cccs1)N1N=C(c2ccc(O)cc2)CC1c1ccccc1` (stereo unspecified), the activity score was active: -71.7%. For `COc1ccc(-c2nc(-c3cccs3)no2)cc1`, the activity score was inactive: 82.6%. In the case of `COc1ccc(/C=C/C2=NNC(=O)CC2)cc1`, the activity score was inactive: 59.6%. For `CCOc1cc(CN2CCN(Cc3ccc(C)o3)C(CCO)C2)ccc1OC` (stereo unspecified), the activity score was inconclusive: -47.1%. In the case of `COCCCNC(=O)/C(C#N)=C/c1ccc(F)cc1`, the activity score was inconclusive: -52.6%. For `Cc1cc(NC(=S)Nc2ccccc2)ccc1Br`, the activity score was inconclusive: -51.1%. With `O=C(NNC(=S)Nc1ccccc1Cl)c1ccccc1Cl` the activity score was inconclusive: -54.2%. For `Cc1cccc(OCC(=O)Nc2sc3c(c2C#N)CCC3)c1`, the activity score was active: -99.5%. With `CC(=O)Nc1cccc(NC(=O)c2cccc3cccnc23)c1` the activity score was inconclusive: -55.1%. With `COc1ccc2c(c1)C=CC1(O2)N(CCO)c2ccccc2C1(C)C` (stereo unspecified) the activity score was inconclusive: -49.4%. In the case of `O=C(Nc1cccc(Cl)c1)c1ccc(NCC2CCCO2)c([N+](=O)[O-])c1` (stereo unspecified), the activity score was inconclusive: -57.1%. For `CCNC(=S)Nc1nc2c(cc1C(=O)OCC)CCCC2`, the activity score was inconclusive: -53.2%. With `CCN(C(=O)COC(=O)c1cc([N+](=O)[O-])ccc1N1CCOCC1)C1CCS(=O)(=O)C1` (stereo unspecified) the activity score was inconclusive: -82.3%.
